Measurements published in PubChem BioAssay AID1508623 (National Center for Advancing Translational Sciences (NCATS), 2021).
The whole screen tested about 48,000 compounds, of which about 450 (0.94%) were called active. Roughly 19% stayed inconclusive and do not appear here. Calls follow the shape of the dose curve; as a rule, active = well fitted inhibition curve with a large enough effect; inconclusive = small, poorly fitted or top-dose-only effect; inactive = no such curve, though single readings can be large or run the other way. The list shows a part of the results.

assay: Primary qHTS for Identification of Small Molecule Inhibitors of Huntingtin Promoter Activity; settings: HEK293 HTT promoter firefly luciferase reporter (activity 0% = vehicle and -100% = no light), 24 h; series mostly up to 57.5 µM; activity change, negative = inhibition: at the top concentration; also: nearly all actives have a fitted effect of over 50% in size
Outline: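 HEK293 Fluc reporter, 2,500 cells/well, 24 h pre-culture; cpds up to 57.5 uM final, 24 h 37 degrees C; Dual-Glo, 10 min RT; normalized vehicle = 0%, zero RLU = -100%.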

Activity change, negative = inhibition, inactive:
COc1ccc2c(CNCc3cccs3)c(C(=O)O)n(Cc3ccc(C)cc3)c2c1 -16.5%, CN1CCN(c2c(F)cc3c(=O)c(C(=O)O)cn4c3c2SCC4)CC1 -7.12%, COc1ccc(NC(=O)Cn2c(=O)n(Cc3nc(-c4ccccc4)no3)c(=O)c3cc4c(cc32)OCO4)c(OC)c1 -8.66%, O=C(Nc1ccc2oc(-c3cccnc3)nc2c1)c1ccc(Br)cc1 -25.5%, Cc1nn(CC(=O)NCc2ccc(Cl)cc2)c(=O)c2cc3sccc3n12 -2.16%, Cc1ccc(CN2CCCn3nc(C(=O)NC(C)C)cc3C2=O)cc1 -3.67%, CC(=O)c1ccc(NC(=O)C2Cc3ccccc3N2C(=O)c2ccccc2)cc1 (configuration not stated) -12.9%, CC(=O)Nc1nonc1-c1nnc(SCC(=O)Nc2cccc(F)c2)n1-c1ccccc1 -21.2%, COC(=O)c1scc(-c2ccc(C)cc2)c1S(=O)(=O)Nc1ccc(F)cc1F -25.7%, COc1ccc(C)cc1NC(=O)Cn1c(=O)c(C(F)(F)F)nc2ccccc21 -6.67%, CN(C)S(=O)(=O)c1ccc2c(c1)N(CC(=O)NCc1ccc(F)cc1)C(=O)CS2 -1.67%, COc1ccccc1N1CCN(c2ccc(=O)n(CC(=O)NCc3ccc(OC(C)C)cc3)n2)CC1 -19.2%, Cc1ccc(NC(=O)Cn2cc3c(n2)CCCC3)c(Cl)c1 -0.86%, CNc1c2c(nn1C)CCCC2 9.67%, Cc1nn(C)c2c1c(C(F)(F)F)cc(=O)n2CC(=O)NCCC(C)C -14.4%, COc1ccc(-c2cc3ccc(O)c(CN4CCC(C)CC4)c3oc2=O)cc1 -10.2%, COc1ccc(-n2nc(C(=O)Nc3cc(OC)c(OC)c(OC)c3)c(=O)n(C)c2=O)cc1 7.11%, COc1ccc(-n2nc(C(=O)N3CCN(c4ccc(F)cc4)CC3)c3c4ccccc4n(C)c3c2=O)cc1 -13.4%, COc1ccc(C2CC(c3ccccc3)=NN2c2ccc(S(N)(=O)=O)cc2)cc1 (configuration not stated) -25.2%, O=C(O)c1ccc(Nc2nc3ccccc3n3cnnc23)cc1 27.9%, COc1ccc(C2CC(=O)N(Cc3ccc(F)cc3)c3ccccc3S2)cc1OC (configuration not stated) -7.82%, COc1ccc(OC)c2sc(N3CCN(C(=O)c4ccc5c(c4)CCCC5)CC3)nc12 0%, CCCCCn1c(=O)[nH]c2cc(C(=O)NCc3ccc(Cl)cc3)ccc2c1=O -0.429%, c1ccc(N2CCN(Cc3cccn3-c3nnc(N4CCN(C5CCCCC5)CC4)s3)CC2)cc1 -7.87%, CCc1ccccc1NS(=O)(=O)c1ccc2c(c1)CCN2C(=O)C1CC1 -11.5%, CCc1ccc(-c2nn(CC(=O)NC3CCCCC3)c3c2cnc2ccc(C)cc23)cc1 3.44%, O=C(CN1CCN(Cc2cccc(Cl)c2)C1=O)NCc1ccc(F)cc1 12.6%, CCN(c1ccccc1C)S(=O)(=O)c1ccc(N2CCCCS2(=O)=O)cc1 -14.8%, CCOc1ccc(CCNC(=O)c2nn(-c3ccc(OC)c(Cl)c3)c(=O)c3c2c2ccccc2n3C)cc1OCC -1.76%, CC(C)Cn1c(=O)c2sccc2n2c(CCCC(=O)NCCc3ccc(Cl)cc3)nnc12 -16.1%, CCc1ccc(NC(=O)CSc2nc(-c3ccccc3Cl)nc3c2Cc2c(CO)cnc(C)c2O3)cc1 1.05%, COc1ccc(OCC(=O)Nc2ccc3c(c2)nc(CCNC(=O)c2ccco2)n3C)cc1 -24.8%, CC(C)NC(=O)c1ccc(-n2c(-c3ccccc3)cc3c2CCCC3)cc1 15%, CCc1ccc2nc(N(Cc3cccnc3)C(C)=O)sc2c1 3.74%, O=c1ccc2cc(S(=O)(=O)NCc3ccc(Br)cc3)ccc2[nH]1 -20%, Cc1ccc(NC(=O)CSc2nccn2Cc2ccco2)cc1Cl 30.4%, CCC(=O)N1CCc2cc(S(=O)(=O)NC(CC(C)C)C(=O)NCCc3cccc(C)c3)ccc21 (configuration not stated) -23%, COc1cccc(NC(=O)CSCc2cc(=O)c3ccc(C)c(C)c3[nH]2)c1 80.4%, Cn1c(=O)c2c(n3c4ccccc4nc13)NC(=O)CC2c1cccc(F)c1 (configuration not stated) -5.64%, CCNc1ccc(-c2nc(-c3ccccn3)no2)cc1[N+](=O)[O-] 75.5%, Cc1cc(NC(=O)COCc2cc(-c3ccc(F)cc3)on2)ccc1Br -18.9%, O=C(CCCCn1c(=O)c2ccccc2n(Cc2ccccc2Cl)c1=O)NCc1ccc2c(c1)OCO2 -8.65%, COC(=O)C1=C(C)NC(C)=C(C(=O)OCC(C)C)C1c1ccccc1[N+](=O)[O-] (configuration not stated) -22.6%, CCCn1c2ccccc2c2cnn(CC(=O)N3CCN(c4ccccc4F)CC3)c(=O)c21 3.5%, CCOc1ccc(CCNS(=O)(=O)c2c(C)nc3scc(C)n3c2=O)cc1OCC -10.4%, Cc1ccc(Nc2c(-c3ccc(Cl)cc3)nc3sccn23)c(C)c1 -16.6%, CCOc1ccc(CNC(=O)c2ccc3nc(CC)c(CC)nc3c2)cc1 20.1%, CC(C)Oc1cccc(C(=O)Nc2ccc3oc(-c4cccc(Cl)c4)nc3c2)c1 9.15%, Cc1ccc(C)c(NC(=O)N2CCC(CN3CCOCC3)CC2)c1 -10.7%, CCn1c(=O)c2cc(C(=O)NCCCOC)sc2c2ccccc21 -12.2%, Cc1cc(C)n(-c2nc3ccccc3nc2Nc2ccc(Cl)cc2Cl)n1 -11.4%, COc1ccc(CNC(=O)CCC2N=C3c4ccccc4N=C(SCc4cccc(F)c4)N3C2=O)cc1 (configuration not stated) -19.3%, CC(=O)N1CCCc2cc(S(=O)(=O)NCc3cccc(C)c3)ccc21 -24.7%, CCCN(CCC)C(=O)Cn1nnc2sc(-c3ccccc3)cc2c1=O -4.03%, O=c1c2cnn(-c3ccc(F)cc3)c2ncn1Cc1cccc(Cl)c1 -3.99%, Cc1nn2c(=O)cc(COC(=O)c3cccc(NC(=O)COc4ccccc4Cl)c3)nc2s1 -10.3%, Cc1ccc(C(=O)c2cn(Cc3cccc(C)c3)c3nc(C)ccc3c2=O)cc1 -19.7%, COc1ccc(NC(=O)Cn2c(=O)n(-c3ccccc3)c(=O)c3c4c(sc32)CCCC4)c(OC)c1 -0.872%, CC(C)Oc1ccc(CNS(=O)(=O)c2ccc3c(c2)C(C)(C)C(=O)N3C)cc1 -22.5%, Cc1ccc(NC(=O)CSc2ncc(S(=O)(=O)c3ccc(C(C)C)cc3)c(=O)[nH]2)cc1C -5.19%, Cc1ccc(CNC(=O)c2nc(SCc3ccc(F)cc3)ncc2Cl)cc1 -6.22%, COc1ccc(S(=O)(=O)n2nc(C)c(S(=O)(=O)N3CCCCCC3)c2C)cc1 -7.93%, Cc1cc(C)n2c(Nc3ccc4c(c3)OCCO4)c(-c3ccc(Cl)cc3)nc2n1 4.97%, COC(=O)c1cc(S(=O)(=O)N2CCN(c3ccc(OC)cc3)CC2)c[nH]1 -23.5%, CCCN1CCN(C(=O)Cn2c(-c3cccs3)cc3ccccc32)CC1 -19.6%, Cc1ccc(NC(=O)c2cnc(N3CCCCC3)c3ccccc23)c(C)c1 1.18%, COCCCNC(=O)C1CCN(C(=O)c2cnn(-c3ccccc3)c2-n2cccc2)CC1 -10.9%, CCCCOc1ccc(C2=NC(c3cccs3)=Nc3ccc(CC)cc3N2)cc1 -8.39%, CC(C)CC(=O)Nc1nc2nc(-c3ccccc3)cc(=O)n2[nH]1 -20.3%, CCOC(=O)c1ccc(O)c(O)c1 7.33%, Cc1ccc(N2C(=O)NC(NS(=O)(=O)c3ccccc3)(C(F)(F)F)C2=O)cc1C (configuration not stated) -17.5%, COc1ccc(CNC(=O)CCCn2nc(C)c3sc4ccccc4c3c2=O)cc1OC -4.98%, CCOc1ccccc1CNC(=O)c1ccc(N2Cc3ccccc3Oc3ncccc32)s1 -31.7%, Cc1cccc(NC(=O)N2CCN(C(=O)c3nsc4ccccc34)CC2)c1C -3.53%, Cc1ccc2c(CC(=O)Nc3ccc(S(=O)(=O)N4CCCCC4C)cc3)coc2c1 (configuration not stated) -28.2%, Cc1ccc(CNC(=O)c2cccn2-c2nnc(N3CCCC3)s2)cc1 -19.2%, COc1cccc(NC(=O)CN2C(=O)CSc3ccc(S(=O)(=O)N4CCCC4)cc32)c1 -22.5%, Clc1ccc2c(c1)-c1c(cnc3cc(-c4ccccc4)nn13)CO2 -3.53%, COc1ccc(N2CCN(C(=O)c3cnn(-c4ccc(F)cc4)c3-n3cccc3)CC2)cc1 -23.5%, CCC1CCCCN1CCCNC(=O)CN1C(=O)c2cccnc2Oc2ccc(C)cc21 (configuration not stated) -2.57%, O=C(Nc1ccc(Br)cc1F)C1CCN(c2nc3ccccc3[nH]2)CC1 -3.46%, CCOc1ccc(C(=O)Nc2nnc(S(=O)(=O)Nc3ccccc3)s2)cc1 11.6%, CCOc1cc2[nH]c(=O)n(CCCCC(=O)N3CCN(c4ccc(OC)cc4)CC3)c(=O)c2cc1OCC -14.6%, CCOc1ccc2nc(N3CCC(C(=O)Nc4ccccc4CC)CC3)sc2c1 18%, CC(C)C(=O)N1c2nc(-c3ccco3)nn2C2(CCCCC2)[C@@H]2CCCC[C@@H]21 -17%, Cc1oc2c(cc(NS(=O)(=O)c3ccc(C(C)C)cc3)c3ccccc32)c1C(=O)O -13.8%, Cc1ccc(CCNc2ncnc3onc(-c4ccc(F)cc4)c23)cc1 3.88%, CCN(CC)C(=O)c1sc2c(c1C)c(=O)n(-c1ccc(Cl)c(Cl)c1)c(=O)n2Cc1cc(=O)n2ccccc2n1 -11.5%, COc1cccc(CNC(=O)Cn2c(=O)n3nc(-c4cccc(F)c4)nc3c3ccccc32)c1 0%, COc1ccc(NC(=O)CCn2c(=O)c3cccn3c3cccnc32)cc1Cl 6.51%, O=C(Cn1c(=O)n(CCCS(=O)(=O)C2CCCCC2)c(=O)c2ccccc21)Nc1ccccc1C(F)(F)F -5.03%, Cc1ccc(S(=O)(=O)c2[nH]c(-c3ccccc3)nc2SCC(N)=O)cc1 -7.34%, COC(=O)c1sc2ncccc2c1-n1c(C)ccc1C 10.3%, CCOC(=O)N1CCN(C(=O)c2c(C)nn(-c3cccc(C)c3)c2-n2cccc2)CC1 -29.5%, COc1ccccc1CNS(=O)(=O)c1ccc2c(c1)CC(=O)N2C -12.4%, O=C(NCc1ccc2c(c1)CCN2C(=O)c1ccccc1)c1ccccc1 -2.47%, Cc1ccc2oc3c(c(=O)c2c1)C(c1ccccc1F)N(CCCN(C)C)C3=O (configuration not stated) 17.8%
